Variants at the background level are over-represented here.
B1: TPR 5TU (parent)
chain: GGAUCUUCUCGAUCUAACAAAAAAGACAAAUCUGCCACAAAGCUUGAGAGCAUCUUCGGAUGCAGAGGCGGCAGCCUUCGGUGGCGCGAUAGCGCCAACGUUCUCAACUAUGACACGCAAAACGCGUGCUCCGUUGAAUGGAGUUUAUCAUG

Variants of: B1
Experiment: polymerase ribozyme fitness, log enrichment relative to wild type (log ratio); higher = more active; in vitro selection for triplet polymerase activity
Procedure, shortened: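 Genotype fitness is the logarithm of its enrichment divided by wild-type enrichment, using inverse-variance-weighted averages of replicates. That logarithm is base 2. Enrichment was measured by Illumina sequencing of input and output libraries from one triplicate in vitro selection round, with frozen incubation at −7 °C, on PCR-built, transcribed mutant libraries of each subunit of a heterodimeric triplet polymerase ribozyme, retaining genotypes with ≥10 input reads and ≥1 read per output.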

Point of comparison: GGAUCUUCUCGAUCUAACAAAAAAGACAAAUCUGCCACAAAGCUUAAGAGCAUCUUCGGAUGCAGAGGCGGCAGCCUUCGGUAGCGCGAUAGCGCCAACGUUCUCAACUAUGACACGCAAAACGCGUGCUCCGUUGAAUGGAGUUUAUCAUG [G46A G83A], “polymerase ribozyme fitness (log ratio)” value -0.911. Against it:
- GGAUCUUCUCGAUCUAACAAAAAAGACAAAUCUGCCACAAAGCUUCCGAGCGUCUUCGGAUGCAGAGGCGGCAACCUUCGGUGGUGCGAUAGCGCUAACGUUCUCAACUAUGACACGCAAAACGCGUGCUCCGUUGAAUGGAGUUUAUCAUU [G46C A47C A52G G74A C85U C96U G152U] — lower, ≤ -4.2
- GGAUCUUCUCGAUCUAACAAAAAAGACAAAUCUGCCACAAAGCUUAAGAGCAUCUUCGGAUGCACAGGCGGCAGCCUUCGGUGGUGCGGUAGCGCCAACGUUCUCAACGAUGACACGCAAAACGCGUGCUCCGUUGAUUGAAGUUUAUCAUG [G46A G65C C85U A89G U109G A138U G141A] — lower, ≤ -4.2
- GGAUCUUCUCGAUCUAACAAAAAAGACAAAUCUGCCACAAAGCUUAAGAGCAUCUUCGGAUGCAGAGGCGGCAGCCUUCGGUGGCGCGAUAGCCCCAACGUUCUCAACUAUGACAGGCAAAACGCGUGCUCCGUUGAAUGAAGUUUAUCAUG [G46A G94C C116G G141A] — lower, ≤ -4.2
- GGAUCUUCUCGAUCUAACAAAAAAGACAAAUCUGCCACAAAGCUUAAGAGCAUCUUCGGAUGCAGAGGCGGCAGCCUUCGGUGGCGGGAUAGUGCCAACGUUCUCAACUAUGACACGCAAAACGCGUGCGCCCUUGAAUGGAGUUUAUCAUG [G46A C87G C93U U130G G133C] — lower, ≤ -4.2
- GGAUCUUCUCGAUCUAACAAAAAAGACAAAUCUGCCACAAAGCUUAAGAGCAUCUUGGGAGGCAGAGGCGGCAGCCUUCGGUGGCCAGAUAGCGCCAACGUUCUCAACUAUGAUAUGCAAAACGCGUGCUCCGUUGAAUGUAGUUUAUCAUG [G46A C57G U61G G86C C87A C114U C116U G141U] — lower, ≤ -4.2
- GGAUCUUCUCGAUCUAACAAAAAAGACAAAUCUGCCACAAAGCUUAACAGCAUCUUCGGAGGCAGAGGCGGCAGCCUUCGGUGGCGCGAUAGCGGCAACGUUCUCAACUAUGACACGCACAACGCGUGCUCCGUUGAAUGGAGUUUAUCAUG [G46A G48C U61G C95G A120C] — lower, ≤ -4.2
- GGAUCUUCUCGAUCUAACAAAAAAGACAAAUCUGCCACAAAGCUUAAGAGCAUCUUCGGAUGCAGAGGCGGCAGCCUUCGGUGGCGCGAUAACGCCAAGGUUCUCAGCUAUGACACGCAAAACGCGUGCUCCGUUGAAUGGAGUUUAUCAUG [G46A G92A C99G A107G] — lower, ≤ -4.2
- GGAUCUUCUCGAUCUAACAAAAAAGACAAAUCUGCCACAAAGCUUAAGAGCAUCUUCGGAUGCAGAGGCGGCAGCCUUCGGUGGCGCGAUAGCGCGAACGUGCUCAACUAUGACACGCAAAACGCGUGCUCCGUUGAAUGGAGUUUAUCAUG [G46A C96G U102G] — lower, ≤ -4.2
- GGAUCUUCUCGAUCUAACAAAAAAGACAAAUCUGCCACAAAGCUUAAGAGCAUCUUCGUAUGCAGAGGCGGCAGCCUUCGGUGGCGCGAUAGCGCCAACGUUCUCAACUAUGACACGCAAAACGCGUGCUCCGUUGAAUGGAGUUUAUCAUG [G46A G59U] — higher, 0.917
- GGAUCUUCUCGAUCUAACAAAAAAGACAAAUCUGCCACAAAGCUUAAGAGCAUCGUCGGAUGCAGAGGCGGCAGCCUUCGGUGGUGCGAUAGCGCCACCGUUCUCAACUAUGAUACGCAAAACGCGUGCUCCGUUGAAUGGUGUUUAUCAUG [G46A U55G C85U A98C C114U A142U] — lower, ≤ -4.2
- GGAUCUUCUCGAUCUAACAAAAAAGACAAAUCUGCCACAAAGCUUAAGAGUAACUUCGGAUGCAGAGGCGGCACCCUUCGGUUGCGCGAUAGCGCCAACGUUGUCAACUAUGACACGCAAAACGCGUGCUCCGUUGAAUAGAGUGUAUCAUG [G46A C51U U53A G74C G83U C103G G140A U145G] — lower, ≤ -4.2
- GGAUCUUCUCGAUCUAACAAAAAAGACAAAUCUGCCACAAAGCUUAAGAGCAUCUUCGGAUGCAGAGGCGGCAGCCUUCGGUGGCGCGAGAGCACCAACUUUCUCAACUAUGACGCGCAAUACGCGUGCUCCGUUGAAUGGAGUUUAUCAUG [G46A U90G G94A G100U A115G A121U] — lower, ≤ -4.2
- GGAUCUUCUCGAUCUAACAAAAAAGACAAAUCUGCCACAAAGCUUAAGAGCAUCUUCGGAUGCAGAGGCGGCAGCCAUCGGUGGCGCGAUAGCGCCAGCGUUCUCAACUGUGACACGCAAAUCGCAUGCUCCGUUGAAUGGAGUUUAUCAUG [G46A U77A A98G A110G A122U G126A] — lower, ≤ -4.2
- GGAUCUUCUCGAUCUAACAAAAAAGACAAAUCUGCCACAAAGCUUCGGAGCAUCUUCGGAUGCAGAGGCGGCAGCCUUCGGUGGCGCGAUAGCGUCAACGUUCUCAACUAUGACACGCAAAACGCGUGCUACGUUGAAUGCAGUUAAUCAUG [G46C A47G C95U C131A G141C U146A] — lower, ≤ -4.2
- GGAUCUUCUCGAUCUAACAAAAAAGACAAAUCUGCCACAAAGCUUAAGAGCAUCUUCGUAUGCAGAGGCGGCUGCCUUCGGUGGCCCGAUAGCGCCAACGUUCUCAACUAUGACACGCAAAACGCGUGCUCCGUUGAAUGGAGUUUAUCAUG [G46A G59U A73U G86C] — lower, ≤ -4.2
- GGAUCUUCUCGAUCUAACAAAAAAGACAAAUCUGCCACAAAGCUUAAGAGCAUCCUCGCAUGCAGAGGCGGCAGCCUGCGGUGGCGCGAUAGCGCUAACGUUCUCAACUAUGACACGCAAAACGCGUGCUCCGUUGAAUGGAGUUUAUCAUG [G46A U55C G59C U78G C96U] — lower, ≤ -4.2
- GGAUCUUCUCGAUCUAACAAAAAAGACAAAUCUGCCACAAAGCUUAAGAGCAUCUUCGGAUGCAGAGGCGGCAGGGUUCGGUGGCGCGAUAGCGCCCGCGUUCUCAACUAUGACACGCAAAACGCGUUCUCCGUUGAAUGGAGUUUAUCAUG [G46A C75G C76G A97C A98G G128U] — lower, ≤ -4.2
- GGAUCUUCUCGAUCUAACAAAAAAGACAAAUCUGCCACAAAGCUUAAGAGCAUAUUCGGAUGCAGAGGCGGCAGCCUUCGGUGGCGCGAUAGCCCCAACGUUCUCAACUAUGACACACAAAUCACGUGCUCCGUUGAAUGGAGUUUAUCAUG [G46A C54A G94C G117A A122U G124A] — lower, -3.11
